Assay results taken from PubChem BioAssay AID540317 (National Center for Advancing Translational Sciences (NCATS), 2011).
About 2,200 (0.56%) of roughly 390,000 compounds were called active. This list was built around the results that the source calls inconclusive (neither active nor inactive); the mix of calls is not that of the screen. Calls come from the whole dose curve; as a rule, active = well fitted inhibition curve with a large enough effect; inconclusive = small, poorly fitted or top-dose-only effect; inactive = no such curve, though single readings can be large or run the other way. Potencies beside an inconclusive call are fits to weak or partial responses and may not hold up.

Biological target: Chromobox protein homolog 1 (Homo sapiens) (UniProt P83916)
Sequence of UniProt P83916 (P83916 whole entry, looked up): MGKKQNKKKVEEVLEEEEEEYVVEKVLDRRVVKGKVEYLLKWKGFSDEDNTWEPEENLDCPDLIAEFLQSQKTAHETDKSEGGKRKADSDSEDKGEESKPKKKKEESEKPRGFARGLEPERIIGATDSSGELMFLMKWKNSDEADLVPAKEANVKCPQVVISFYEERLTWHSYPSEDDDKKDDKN
Experiment: HTS for Inhibitors of HP1-beta Chromodomain Interactions with Methylated Histone Tails; note: nearly all actives have a fitted effect of over 70% in size
Conditions: AlphaScreen HP1-beta / biotin-H3K9me3 peptide binding; series mostly up to 114 µM
Method in brief: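 AlphaScreen: HP1-beta (50 nM) preformed 30 min with biotin-H3(1-18)K9me3 peptide (50 nM) in PBS pH 7.4, 0.01% Tween-20. Compound added for 30 min at RT, then streptavidin donor/nickel chelate acceptor beads (10 ug/mL) for 30 min.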
Potency is the fitted concentration of half-maximal effect; tags give direction and shape of the fitted curve.

| Compound | Potency |
| --- | --- |
| Cc1ccc(CN2C(=O)c3ccccc3C2C(=O)NCC2CCCO2)cc1 (stereo not given) | inactive |
| COC(=O)c1ccc(N2CCc3ccccc32)c([N+](=O)[O-])c1 | inconclusive: 12.6 µM [inhibitor, full curve, poor fit] |
| Cc1ccc(S(=O)(=O)N2CCN(C(=O)c3cccc(-n4cccc4)c3)CC2)cc1 | inconclusive: 31.6 µM [inhibitor, partial curve] |
| Cc1c(Br)c(O)c(Br)c(O)c1/C=N/n1c(-c2ccccc2)n[nH]c1=S | inconclusive: 28.2 µM [inhibitor, single point] |
| Cc1cccc(OCc2nc(C#N)c(N3CC(C)CC(C)C3)o2)c1 (stereo not given) | inconclusive: 10 µM [inhibitor, partial curve, poor fit] |
| COc1cc(CN2CCCC(N3CCN(c4ccccc4C)CC3)C2)cc(Cl)c1O (stereo not given) | inactive |
| O=c1c2cnn(-c3ccc(F)cc3)c2ncn1Cc1ccccc1Cl | inactive |
| Cc1ccc(Nc2nnns2)cc1 | inconclusive: 8.91 µM [inhibitor, full curve, poor fit] |
| CCOc1ccc(C2Nc3cccc4cccc(c34)N2)cc1OC | active: 50.1 µM |
| O=C(Nc1ccc(Nc2ccccc2)cc1)c1c(Cl)cccc1Cl | inconclusive: 39.8 µM [inhibitor, partial curve] |
| Cc1ccc(/C=C/C(=O)NCC2COc3ccccc3O2)o1 (stereo not given) | inconclusive: 39.8 µM [inhibitor, partial curve] |
| O=C(NC1CC(=O)N(c2ccc(F)cc2)C1)C1CCCC1 (stereo not given) | inactive |
| CN(CC(=O)NC1CCCc2ccccc21)C1CCCCC1 (stereo not given) | inconclusive: 89.1 µM [inhibitor, single point] |
| CC(=O)c1ccc(S(=O)(=O)Nc2ccc(-c3cn4c(C)csc4n3)cc2)cc1 | inactive |
| C/C(=N\NC(=O)Cc1cccn1C)c1ccco1 | inactive |
| O=Cc1ccsc1B(O)O | inactive |
| CC1CN(C2CCN(S(=O)(=O)Cc3ccccc3)CC2)CC(C)O1 (stereo not given) | inconclusive: 22.4 µM [inhibitor, full curve] |
| C=CCOC(=O)Nc1ccc(Cl)cc1NC(=O)OCC=C | inactive |
| Cc1c(C(=O)/C=C/N(C)C)nnn1-c1ccc(Cl)cc1Cl | inconclusive: 31.6 µM [inhibitor, single point] |
| [O-]C(=C(C(=S)Nc1cccc2ccccc12)[n+]1ccccc1)c1ccc2c(c1)OCCO2 | inconclusive: 50.1 µM [inhibitor, partial curve, poor fit] |
| CCOCCCNC(=S)Nc1ccc2nc(N3CCCC3)cc(C)c2c1 | inactive |
| CN(C=[N+](C)C)c1cccc2c1C(=O)c1ccccc1C2=O | active: 15.8 µM |
| COCCNC(=S)c1ccc(OC)cc1 | inconclusive: 28.2 µM [inhibitor, partial curve, poor fit] |
| CC/C(=C\C(=O)c1ccncc1)Nc1ccc(Br)cc1 | inconclusive: 50.1 µM [inhibitor, partial curve] |

| Compound | Potency |
| --- | --- |
| COc1cc(C(=O)OCC(=O)c2ccccc2)cc2c1OCCO2 | inactive |
| CCn1c(=O)n(CC)c2cc(N3CCCC3)c(NC(=O)c3cc(Cl)ccc3OC)cc21 | inconclusive: 35.5 µM [inhibitor, partial curve] |
| COC1(C)CC2C(CC1OC(=O)c1cc([N+](=O)[O-])cc([N+](=O)[O-])c1)C2(C)C (stereo not given) | inconclusive: 20 µM [inhibitor, partial curve] |
| C=CSc1sc(Cl)c(N(CC)CC)c1[N+](=O)[O-] | inconclusive: 28.2 µM [inhibitor, partial curve] |
| COc1ccc2nc(NNC(=O)c3cc(=O)c4ccccc4o3)sc2c1 | inconclusive: 25.1 µM [inhibitor, partial curve] |
| Cc1ccc(NC(=O)N2CC3CCCN3c3ccccc32)cc1Cl (stereo not given) | inconclusive: 44.7 µM [inhibitor, partial curve] |
| O=C(NCc1ccccc1)c1ccc(CS(=O)(=O)c2ccc(Br)cc2)o1 | inactive |
| COC(=O)c1c(C)n(-c2ccccc2)c2ccc(O)cc12 | inactive |
| COc1ccc(NC(=O)C2CCN(C3=NS(=O)(=O)C(c4ccc(C)c(C)c4)=C3C)CC2)c(OC)c1 | inconclusive: 79.4 µM [inhibitor, single point] |
| CCc1cc(/C(Cc2ccccn2)=N\Nc2ccccc2)c(O)cc1O | inconclusive: 39.8 µM [inhibitor, full curve] |
| N#CC1C(=O)c2ccccc2C1c1ccccc1 (stereo not given) | inactive |
| Cc1c(OCC(=O)NC(Cc2ccc(Cl)cc2)C(=O)O)ccc2c3c(c(=O)oc12)CCCC3 (stereo not given) | inconclusive: 89.1 µM [inhibitor, single point] |
| Cc1ccc(C)c(OCCC(=O)OCC(=O)Nc2cc(S(=O)(=O)N3CCOCC3)ccc2C)c1 | inactive |
| O=C(O)CCCN1C(=O)/C(=C/c2cn(-c3ccccc3)nc2-c2cccs2)SC1=S | inconclusive: 39.8 µM [inhibitor, partial curve] |
| COc1cc(/C=C(/C#N)C(=O)c2c(C)[nH]c3ccccc23)ccc1OCC#N | inconclusive: 20 µM [inhibitor, full curve] |
| Cc1ccc(Cl)cc1N1CCN(CCCNC(=O)Cn2ncc3c([nH]c4ccccc43)c2=O)CC1 | inactive |
| O=C(CNCc1ccncc1)Nc1cc(S(=O)(=O)N2CCCCC2)ccc1Cl | inconclusive: 25.1 µM [inhibitor, partial curve, poor fit] |
| Cc1cccc2sc(NC(=O)C3CCN(S(=O)(=O)c4cc([N+](=O)[O-])ccc4Cl)CC3)nc12 | inconclusive: 39.8 µM [inhibitor, partial curve] |
| CCOC(=O)c1c(-c2ccc(C)o2)csc1NC(=O)CN1CCC(C(N)=O)CC1 | inconclusive: 79.4 µM [inhibitor, single point] |
| CCc1cccc(C)c1Nc1c(-c2ccc(SC)cc2)nc2sccn12 | inconclusive: 20 µM [inhibitor, partial curve, poor fit] |
| CCC(=O)Nc1nc(C)c(-c2csc(Nc3cccc(O)c3)n2)s1 | inactive |
| C#CCOCCOCCOCCNc1nc(N2CCN(C(=O)CCCCCCCCCCNC(=O)[C@H]([C@@H](C)CC)n3cc(CCCCN=C(N)N)nn3)CC2)nc(N2CCN(C(=O)CCCCCCCCCCNC(=O)[C@@H]([C@H](C)O)n3cc(C)nn3)CC2)n1 | inconclusive: 56.2 µM [inhibitor, single point] |
| CC(C)C(=O)Nc1cc(S(=O)(=O)N2CCOCC2)ccc1N1CCCCC1 | inconclusive: 35.5 µM [inhibitor, partial curve, poor fit] |
| CN1N/C(=C\c2ccccc2)N=C2C(=O)N(C)C(=O)N=C21 | inactive |

| Compound | Potency |
| --- | --- |
| CCCc1c(C)nc(N2CCN(c3ccccc3OC)CC2)[nH]c1=O | inactive |
| COCCN1Cc2cc3cc(C)ccc3nc2SC1=Nc1ccc(OC)cc1 | inactive |
| COC(=O)CN1CC(=O)c2ccccc2S1(=O)=O | inactive |
| COc1ccc(/C=N/c2c(-c3ccc(OC)cc3)nc3n2CCS3)cc1 | inconclusive: 35.5 µM [inhibitor, single point] |
| C/C(=N\NC(=S)Nc1cccc(C)c1)c1cccc(N)c1 | inconclusive: 39.8 µM [inhibitor, partial curve] |
| CCOC(=O)c1c(-c2ccccc2)csc1NC(=O)/C(C#N)=C\c1ccc(O)c(OC)c1 | inconclusive: 22.4 µM [inhibitor, full curve] |
| COc1cc(/C=N/NC(=O)C(=O)N2CCCCCC2)ccc1O | inactive |
| CCCN(c1ccc(C(C)C)cc1)S(=O)(=O)c1ccc2c(c1)n(C)c(=O)c(=O)n2C | inactive |
| COCC(C)NC(C(=O)Nc1ccc(Cl)c([N+](=O)[O-])c1)c1ccccc1 (stereo not given) | inconclusive: 44.7 µM [inhibitor, partial curve] |
| CCC(=O)Nc1ccc2nc(C3CC3)n(Cc3ccc(C(C)(C)C)cc3)c(=O)c2c1 | inactive |
| c1nc(NCc2ccc3c(c2)OCO3)c2cc(-c3ccoc3)ccc2n1 | inactive |
| O=C(COC(=O)c1ccccc1)Nc1ncc([N+](=O)[O-])s1 | inconclusive: 56.2 µM [inhibitor, partial curve, poor fit] |
| Cc1ccc(NC(=O)CSc2nc3ccccc3n2CC(=O)N2CCC(C)CC2)cc1C | inactive |
| O=C(NC(Nc1ncc(S(=O)(=O)c2ccc([N+](=O)[O-])cc2)s1)(C(F)(F)F)C(F)(F)F)c1ccc(Cl)cc1 | inconclusive: 39.8 µM [inhibitor, partial curve] |
| Cc1ccc(-n2c(C)cc(C3=NNC(=NC4CC4)SC3)c2C)cc1C | inconclusive: 50.1 µM [inhibitor, partial curve, poor fit] |
| Cc1ccc2nc(NC(=O)COC(=O)CSc3nc(C)cc(C)n3)sc2c1 | inactive |
| O=C(C1CCN(Cc2ccc(F)cc2)CC1)N1CCN(C/C=C/c2ccccc2)CC1 | inconclusive: 50.1 µM [inhibitor, partial curve, poor fit] |
| COc1cc(CNc2ccc3[nH]c(=O)[nH]c3c2)cc(Cl)c1OCC(=O)NC(C)(C)C | inconclusive: 28.2 µM [inhibitor, single point] |
| FC(F)(F)c1cc(N2CCOCC2)nc(-c2ccccc2)n1 | inconclusive: 39.8 µM [inhibitor, single point] |
| NS(=O)(=O)c1ccc(NC(=O)/C=C/c2ccco2)cc1 | inconclusive: 25.1 µM [inhibitor, partial curve, poor fit] |
| CC1CC(C)CN(CC(=O)Nc2ccc3c(c2)OCCO3)C1 (stereo not given) | inconclusive: 8.91 µM [inhibitor, full curve] |
| O=[N+]([O-])C(=C1SCCS1)C(=C(Cl)Cl)N1CCCCC1 | active: 25.1 µM |
